For 21 compounds, max response, AC50 and viability change results are on record in PubChem BioAssay (NCATS).

SMILES strings stand for the structures. The list shows a part of the results. Shown are side measurements of this screen, not its main read-out; they come without a call. The list favours compounds with an active or inconclusive main result. For some of these results: Potencies come from curve fits of mixed quality, noted in brackets.

The nature of experiment [1]: qHTS Assay for Lipid Storage Modulators (AID 1519). The conditions noted are these: Drosophila S3 cells, BODIPY lipid droplet/cell ratio, laser cytometry, cells loaded with oleic acid. The gist of the method: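 Cells seeded at 5,000 per well were treated with compounds over a concentration series and loaded with oleic acid (400 uM, as added). Lipid droplet fluorescence (488 nm excitation, 500-530 nm channel) was read by laser-scanning cytometry and normalized to 20 uM Triacsin C.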

Experiment [2] is described as follows: qHTS Assay for Modulators of Human Peripheral Myelin Protein 22 (PMP22) Expression/Activity (AID 1967). The following applies: Cell-based PMP22 reporter, dual-color luciferase ratio. Summed up: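 Luminescence ratio of Pmp22 promoter-driven green luciferase to EF-alpha-driven red luciferase, in engineered mouse MSC80 Schwann cells, served as read-out. Compounds were incubated 24h; untreated cells defined 0% Activity; curves were classified by r2, magnitude and activity.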

Experiment [3] is described as follows: qHTS Validation Assay to Find Inhibitors of Chronic Active B-Cell Receptor Signaling (AID 485345). The following applies: ABC-DLBCL cells, chronic BCR signaling reporter. Summed up: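 Read-out: ratio of filter-corrected green (IkappaBalpha fusion) to red (native) luciferase signal in doxycycline-induced TMD8 cells after 4 h at 37C. Titration spanned 46 uM–3 nM; Data were normalised to basal cells and 10 uM MG-132 wells.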

Experiment [4] in a line: Nrf2 qHTS screen for inhibitors: Validation (AID 493153). The conditions noted are these: A549 ARE-Fluc reporter, 18-24 h; AC50: CellTiter-Fluor fluorescence read, measured here: cytotoxicity CellTiter-Fluor AC50; viability change: measured here: cytotoxicity max response. Summed up:
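A549 cells carrying an ARE-driven firefly luciferase reporter, in 5% FBS OPTI-MEM, were treated with compounds in concentration-response for 18-24 h at 37°C. Viability was read by CellTiter-Fluor fluorescence, then Nrf2 activity by luciferase luminescence.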

Where [5] appears, read: measured here: cell count channel max response.
The mark [6] stands for this setting: measured here: lipid channel max response.
[7] abbreviates: measured here: green reporter channel AC50, mouse Pmp22 promoter in mouse Schwann cells.
Setting [8] is: measured here: red reporter channel AC50, EF-alpha promoter control reporter in MSC80 mouse Schwann cells.
The mark [9] stands for this setting: measured here: CBR control luciferase (viability counter).
Tags describe the fitted curve by direction and shape.

In the case of `CCCCCCCCCC(=O)NC(CN1CCOCC1)[C@H](O)c1ccccc1` (some centres not stated), the figures for the max response in experiment [1] (setting [5]) and in experiment [1] (setting [6]) were 55.7% and 55.2%, respectively. Also, the AC50 in experiment [2] (setting [7]) is 47.8 µM [falling, partial curve]; in experiment [2] (setting [8]) it was 60.1 µM [falling, partial curve].
As for `NC1(C(=O)O)CC1`, the max response in experiment [1] (setting [5]) turned out to be 42.9%; in experiment [1] (setting [6]), 42.2%. Also, the AC50 in experiment [2] (setting [8]) is 84.9 µM [falling, single point].
Consider `NCCNC(=O)c1ncsc1-c1cccc(F)c1`, for which the max response in experiment [1] (setting [5]) was determined as 67.6%; in experiment [1] (setting [6]), 69.5%. Besides, the AC50 in experiment [2] (setting [8]) was 84.9 µM [falling, single point].
On to `C[C@]12CCC(=O)C=C1CC[C@@H]1[C@@H]2C(=O)C[C@@]2(C)[C@H]1CC[C@]2(O)C(=O)CO`, for which the max response in experiment [1] (setting [5]) stood at 58.3%; in experiment [1] (setting [6]), 57.9%. Also, the AC50 in experiment [2] (setting [8]) is 30.1 µM [rising, single point]; in experiment [3] (setting [9]) it was 8.2 µM [rising, partial curve].
Consider `CCCn1c(=O)c2[nH]c(-c3ccc(S(=O)(=O)O)cc3)nc2n(CCC)c1=O`, for which the max response stood at 42.5% in experiment [1] (setting [5]) and 41.6% in experiment [1] (setting [6]). Moreover, the concentration at half-maximal activity (AC50) in experiment [3] (setting [9]) is 0.92 µM [falling, full curve].
Consider `Cn1c(=O)c2[nH]c(-c3ccc(S(=O)(=O)O)cc3)nc2n(C)c1=O`, for which the max response in experiment [1] (setting [5]) amounted to 74.8%; in experiment [1] (setting [6]) it was 74.2%. Further, the AC50 in experiment [3] (setting [9]) was 4.11 µM [falling, full curve].
With `CN(C)C(=O)/N=N/C(=O)N(C)C`, the max response is 29.7% in experiment [1] (setting [5]) and 30% in experiment [1] (setting [6]). Also, in experiment [2] (setting [8]), the AC50 is 95.3 µM [falling, single point].
As to `O=C(CCCN1CCC(O)(c2cccc(C(F)(F)F)c2)CC1)c1ccc(F)cc1`, the max response in experiment [1] (setting [5]) amounted to 37.2%; in experiment [1] (setting [6]), 35.9%. Further, the concentration at half-maximal activity (AC50) in experiment [2] (setting [7]) is 42.6 µM [falling, full curve]; in experiment [2] (setting [8]) it was 42.6 µM [falling, partial curve].
`COC(=O)[C@H]1[C@H]2C[C@H]3c4[nH]c5ccccc5c4CCN3C[C@H]2CC[C@@H]1O`: the max response was found to be 45.9% in experiment [1] (setting [5]) and 42.1% in experiment [1] (setting [6]). Besides, the AC50 in experiment [2] (setting [8]) is 75.7 µM [falling, single point].
In the case of `CCC(C)N(C)C(=O)c1cc2ccccc2c(-c2ccccc2Cl)n1` (configuration not stated), the max response in experiment [1] (setting [5]) was -13.7%; in experiment [1] (setting [6]) it was -14.3%. Moreover, the half-maximal activity concentration (AC50) was 75.7 µM [falling, single point] in experiment [2] (setting [7]) and 75.7 µM [falling, single point] in experiment [2] (setting [8]).
For `CCn1c(=O)c2[nH]c(-c3ccccc3)nc2n(CC)c1=O`, the max response amounted to 75.7% in experiment [1] (setting [5]) and 79.8% in experiment [1] (setting [6]). Also, the concentration at half-maximal activity (AC50) in experiment [2] (setting [7]) is 67.5 µM [falling, partial curve]; in experiment [2] (setting [8]), 37.9 µM [falling, partial curve].
With `NCCCCNS(=O)(=O)c1cccc2c(Cl)cccc12`, the max response in experiment [1] (setting [5]) was 51.1%; in experiment [1] (setting [6]), 49.9%. Further, the AC50 in experiment [2] (setting [7]) was 21.3 µM [falling, full curve]; in experiment [2] (setting [8]), 23.9 µM [falling, full curve].
As for `C=CC1(C)CC(=O)C2(O)C(C)(O1)C(OC(C)=O)C(O)C1C(C)(C)CCC(O)C12C` (configuration not stated), the max response in experiment [1] (setting [5]) was 39.7%; in experiment [1] (setting [6]), 39%. Besides, the AC50 in experiment [2] (setting [7]) was 6.75 µM [rising, full curve]; in experiment [2] (setting [8]) it was 0.0213 µM [falling, full curve, poor fit]; in experiment [3] (measured here: CBG/CBR ratio read-out) it was 14.6 µM [falling, partial curve]; in experiment [3] (setting [9]), 10.3 µM [rising, partial curve].
With `C=CCc1ccccc1OCC(O)CNC(C)C` (configuration not stated), the max response turned out to be 54.7% in experiment [1] (setting [5]) and 55.8% in experiment [1] (setting [6]). Besides, the concentration at half-maximal activity (AC50) in experiment [2] (setting [7]) is 95.3 µM [falling, single point]; in experiment [2] (setting [8]) it was 84.9 µM [falling, single point].
Regarding `O=C1C2C=CC=CC2=NC(=S)N1CCN1CCC(=C(c2ccc(F)cc2)c2ccc(F)cc2)CC1` (configuration not stated), the max response in experiment [1] (setting [5]) turned out to be 45.4%; in experiment [1] (setting [6]), 35.9%. Further, the concentration at half-maximal activity (AC50) in experiment [2] (setting [7]) is 84.9 µM [falling, single point]; in experiment [2] (setting [8]), 84.9 µM [falling, single point].
Consider `O=C1N=C(O)CN1/N=C/c1ccc(-c2ccc([N+](=O)[O-])cc2)o1`, for which the max response was -16.5% in experiment [1] (setting [5]) and -15% in experiment [1] (setting [6]). For the same compound, the AC50 in experiment [2] (setting [7]) is 2.39 µM [rising, full curve, poor fit]; in experiment [2] (setting [8]), 95.3 µM [falling, single point].
With `CCCCC#Cc1nc(N)c2ncn([C@@H]3O[C@H](C(=O)NCC)[C@@H](O)[C@H]3O)c2n1`, the max response in experiment [1] (setting [5]) was -21.5%; in experiment [1] (setting [6]), -20.3%. For the same compound, the AC50 was 84.9 µM [falling, single point] in experiment [2] (setting [7]) and 84.9 µM [falling, single point] in experiment [2] (setting [8]).
Regarding `NC(N)=NC(=O)Cc1c(Cl)cccc1Cl`, the figures for the max response in experiment [1] (setting [5]) and in experiment [1] (setting [6]) were 55.9% and 57.1%, respectively. For the same compound, the AC50 in experiment [2] (setting [7]) was 60.1 µM [falling, partial curve]; in experiment [2] (setting [8]), 67.5 µM [falling, partial curve]; in experiment [3] (setting [9]), 1.03 µM [rising, full curve, poor fit].
As for `CCCOC(=O)c1c(-c2ccccc2)nc(CC)c(C(=O)SCC)c1CCC`, the max response amounted to 48.6% in experiment [1] (setting [5]) and 49.6% in experiment [1] (setting [6]). Further, the half-maximal activity concentration (AC50) in experiment [2] (setting [7]) is 60.1 µM [falling, partial curve]; in experiment [2] (setting [8]), 75.7 µM [falling, partial curve].
`CCN(CC)CC#CCOC(=O)C(O)(c1ccccc1)C1CCCCC1` (configuration not stated): the max response in experiment [1] (setting [5]) stood at 41.2%; in experiment [1] (setting [6]), 42.2%. For the same compound, the AC50 is 60.1 µM [falling, partial curve] in experiment [2] (setting [7]) and 84.9 µM [falling, single point] in experiment [2] (setting [8]).
Turning to `CC(COc1ccc(/C=C/c2ccccc2)cc1)[N+](C)(C)C` (configuration not stated), the max response is -17.2% in experiment [1] (setting [5]) and -56% in experiment [1] (setting [6]). Also, the AC50 in experiment [2] (setting [7]) was 47.8 µM [falling, partial curve]; in experiment [2] (setting [8]), 75.7 µM [falling, single point]. Besides, the viability change in experiment [4] is -1.02%.
